Assay [1] deals with T1, human CEACAM5 expressed on MKN-45 wt cells (human, UniProt P06731 35-702).
T1 construct: MKN-45 cells also express CD47 and CEACAM6; also called CEACAM5 on MKN45
T1 sequence: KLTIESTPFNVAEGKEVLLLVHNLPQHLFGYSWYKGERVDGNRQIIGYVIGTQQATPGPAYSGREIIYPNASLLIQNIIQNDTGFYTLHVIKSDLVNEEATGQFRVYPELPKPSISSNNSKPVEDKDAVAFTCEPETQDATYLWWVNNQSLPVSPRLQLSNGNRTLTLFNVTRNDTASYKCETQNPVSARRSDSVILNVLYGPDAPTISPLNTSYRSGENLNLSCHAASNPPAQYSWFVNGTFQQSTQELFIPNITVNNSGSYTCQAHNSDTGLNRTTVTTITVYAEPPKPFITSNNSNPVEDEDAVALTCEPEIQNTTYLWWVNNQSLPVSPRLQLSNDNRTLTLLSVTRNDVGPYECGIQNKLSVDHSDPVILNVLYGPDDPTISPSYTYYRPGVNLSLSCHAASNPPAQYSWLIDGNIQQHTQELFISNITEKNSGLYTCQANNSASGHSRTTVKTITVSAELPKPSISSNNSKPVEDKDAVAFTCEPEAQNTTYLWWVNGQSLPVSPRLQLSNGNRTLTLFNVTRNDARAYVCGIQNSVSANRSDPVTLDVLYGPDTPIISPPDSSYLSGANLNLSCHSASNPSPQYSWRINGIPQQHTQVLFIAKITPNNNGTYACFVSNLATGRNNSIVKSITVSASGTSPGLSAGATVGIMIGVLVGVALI
As to the kind of experiment: flow cytometry on MKN-45 wt cells (express CEACAM5 and CD47).

Assay [2] concerns the target T2, human CD47 expressed at the surface of MKN45 cells (human, UniProt Q08722).
T2 construct: whole, on cells; also called IAP
As to the kind of experiment: inhibition of SIRPα mouseFc binding to CD47 on MKN45 cells; imaging (CX5).

T2 sequence (Q08722 19-323): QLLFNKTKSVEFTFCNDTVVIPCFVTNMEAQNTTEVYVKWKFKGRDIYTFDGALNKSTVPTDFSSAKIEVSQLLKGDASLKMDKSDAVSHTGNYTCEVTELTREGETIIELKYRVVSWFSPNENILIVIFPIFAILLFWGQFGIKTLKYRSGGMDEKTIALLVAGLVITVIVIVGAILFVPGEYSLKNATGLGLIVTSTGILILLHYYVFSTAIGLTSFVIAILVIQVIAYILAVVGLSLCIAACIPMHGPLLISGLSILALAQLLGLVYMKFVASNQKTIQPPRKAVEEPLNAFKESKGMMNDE

B1: K2AC45 (bispecific antibody, human IgG1, kappa, lambda)
heavy: [here about 120 residues without letters][here about 100 residues without letters][here human IgG1 Fc without letters]
light 1: QSVLTQPPSASGTPGQRVTISCSGSSSNIVGVGVNWYQQLPGTAPKLLIYSYNKRPSGVPDRFSGSKSGTSASLAISGLQSEDEADYYCAAYDADMIVPAPVFGGGTKLTVLGQPKAAPSVTLFPPSSEELQANKATLVCLISDFYPGAVTVAWKADSSPVKAGVETTTPSKQSNNKYAASSYLSLTPEQWKSHRSYSCQVTHEGSTVEKTVAPTECS
light 2: DIQMTQSPSSLSASVGDRVTITCRASQSISSYLNWYQQKPGKAPKLLIYAASSLQSGVPSRFSGSGSGTDFTLTISSLQPEDFATYYCQQMHPRAPKTFGQGTKVEIKRTVAAPSVFIFPPSDEQLKSGTASVVCLLNNFYPREAKVQWKVDNALQSGNSQESVTEQDSKDSTYSLSSTLTLSKADYEKHKVYACEVTHQGLSSPVTKSFNRGEC
notes: 6 is full length
Take B1: in assay [1], the response was half-maximal at 256 nM (EC50) and the “Emax (MFI)” value is 1.65e+06 MFI.

B2: K2AC48 (bispecific antibody, human IgG1, kappa, lambda)
heavy: [here about 120 residues without letters][here about 100 residues without letters][here human IgG1 Fc without letters]
light 1: QSVLTQPPSASGTPGQRVTISCSGSSSNINGVGVNWYQQLPGTAPKLLIYEFNKRPSGVPDRFSGSKSGTSASLAISGLQSEDEADYYCAAYDAARYVPAPVFGGGTKLTVLGQPKAAPSVTLFPPSSEELQANKATLVCLISDFYPGAVTVAWKADSSPVKAGVETTTPSKQSNNKYAASSYLSLTPEQWKSHRSYSCQVTHEGSTVEKTVAPTECS
light 2: DIQMTQSPSSLSASVGDRVTITCRASQSISSYLNWYQQKPGKAPKLLIYAASSLQSGVPSRFSGSGSGTDFTLTISSLQPEDFATYYCQQMHPRAPKTFGQGTKVEIKRTVAAPSVFIFPPSDEQLKSGTASVVCLLNNFYPREAKVQWKVDNALQSGNSQESVTEQDSKDSTYSLSSTLTLSKADYEKHKVYACEVTHQGLSSPVTKSFNRGEC
notes: 6 is full length
Molecule B2 came in with an IC50 in assay [2] of 4.4 nM. Further, in assay [1], the EC50 is 201 nM and the “Emax (MFI)” value was 2.19e+06 MFI.

B3: K2AC47 (bispecific antibody, human IgG1, kappa, lambda)
heavy: [here about 120 residues without letters][here about 100 residues without letters][here human IgG1 Fc without letters]
light 1: QSVLTQPPSASGTPGQRVTISCSGSSSNINGVGVNWYQQLPGTAPKLLIYGFNSRPSGVPDRFSGSKSGTSASLAISGLQSEDEADYYCAAYDMSTYVPAPVFGGGTKLTVLGQPKAAPSVTLFPPSSEELQANKATLVCLISDFYPGAVTVAWKADSSPVKAGVETTTPSKQSNNKYAASSYLSLTPEQWKSHRSYSCQVTHEGSTVEKTVAPTECS
light 2: DIQMTQSPSSLSASVGDRVTITCRASQSISSYLNWYQQKPGKAPKLLIYAASSLQSGVPSRFSGSGSGTDFTLTISSLQPEDFATYYCQQMHPRAPKTFGQGTKVEIKRTVAAPSVFIFPPSDEQLKSGTASVVCLLNNFYPREAKVQWKVDNALQSGNSQESVTEQDSKDSTYSLSSTLTLSKADYEKHKVYACEVTHQGLSSPVTKSFNRGEC
notes: 6 is full length
Turning to B3, in assay [1], the EC50 was determined as 11 nM and the “Emax (MFI)” value was 2.27e+06 MFI.

B4: K2AC46 (bispecific antibody, human IgG1, kappa, lambda)
heavy: [here about 120 residues without letters][here about 100 residues without letters][here human IgG1 Fc without letters]
light 1: QSVLTQPPSASGTPGQRVTISCSGSSSNIVGVGVNWYQQLPGTAPKLLIYSYNKRPSGVPDRFSGSKSGTSASLAISGLQSEDEADYYCAAYDFSLLLPAPVFGGGTKLTVLGQPKAAPSVTLFPPSSEELQANKATLVCLISDFYPGAVTVAWKADSSPVKAGVETTTPSKQSNNKYAASSYLSLTPEQWKSHRSYSCQVTHEGSTVEKTVAPTECS
light 2: DIQMTQSPSSLSASVGDRVTITCRASQSISSYLNWYQQKPGKAPKLLIYAASSLQSGVPSRFSGSGSGTDFTLTISSLQPEDFATYYCQQMHPRAPKTFGQGTKVEIKRTVAAPSVFIFPPSDEQLKSGTASVVCLLNNFYPREAKVQWKVDNALQSGNSQESVTEQDSKDSTYSLSSTLTLSKADYEKHKVYACEVTHQGLSSPVTKSFNRGEC
notes: 6 is full length
Take B4: the IC50 in assay [2] was determined as 7.9 nM. For the same molecule, in assay [1], the EC50 is 243 nM and the “Emax (MFI)” value stood at 1.14e+06 MFI.

B5: K2AC44 (bispecific antibody, human IgG1, kappa, lambda)
heavy: [here about 120 residues without letters][here about 100 residues without letters][here human IgG1 Fc without letters]
light 1: QSVLTQPPSASGTPGQRVTISCSGSSSNIVGVGVNWYQQLPGTAPKLLIYSYNKRPSGVPDRFSGSKSGTSASLAISGLQSEDEADYYCAAYDFLPVLPAPVFGGGTKLTVLGQPKAAPSVTLFPPSSEELQANKATLVCLISDFYPGAVTVAWKADSSPVKAGVETTTPSKQSNNKYAASSYLSLTPEQWKSHRSYSCQVTHEGSTVEKTVAPTECS
light 2: DIQMTQSPSSLSASVGDRVTITCRASQSISSYLNWYQQKPGKAPKLLIYAASSLQSGVPSRFSGSGSGTDFTLTISSLQPEDFATYYCQQMHPRAPKTFGQGTKVEIKRTVAAPSVFIFPPSDEQLKSGTASVVCLLNNFYPREAKVQWKVDNALQSGNSQESVTEQDSKDSTYSLSSTLTLSKADYEKHKVYACEVTHQGLSSPVTKSFNRGEC
notes: 6 is full length
B5 showed a half-inhibitory concentration (IC50) in assay [2] of 3.3 nM. For the same molecule, in assay [1], the EC50 came out at 140 nM and the “Emax (MFI)” value came out at 1.62e+06 MFI.

For the origin of these results see patent EP3831849A1 (LamKap Bio beta AG, dated 2021).
